{"source": "PubChem BioAssay (Tox21)", "note": "Values joined by “and” are separate entries in the source; they are usually repeats but may differ in a detail not shown here. Equal entries are not always repeated. This list was built around the results that the source calls inconclusive (neither active nor inactive); the mix of calls is not that of the screen. Potencies beside an inconclusive call are fits to weak or partial responses and may not hold up. Active and inactive are the calls of the source. Calls follow the shape of the dose curve; as a rule, active = well fitted inhibition curve with a large enough effect in the repeat runs; inconclusive = weak or mixed curves; inactive = no such curve, though single readings can be large or run the other way. % is scaled to controls: 0 for no effect and ±100 for the full control effect; potency is read from the fitted curve at half-maximal effect; tags tell the direction and shape of the fitted curve. Also: nearly all actives have a fitted effect of over 50% in size."}
{"molecular_target": "Cytochrome P450 1A2 (Homo sapiens) (UniProt P05177)", "sequence (P05177 whole entry, looked up)": "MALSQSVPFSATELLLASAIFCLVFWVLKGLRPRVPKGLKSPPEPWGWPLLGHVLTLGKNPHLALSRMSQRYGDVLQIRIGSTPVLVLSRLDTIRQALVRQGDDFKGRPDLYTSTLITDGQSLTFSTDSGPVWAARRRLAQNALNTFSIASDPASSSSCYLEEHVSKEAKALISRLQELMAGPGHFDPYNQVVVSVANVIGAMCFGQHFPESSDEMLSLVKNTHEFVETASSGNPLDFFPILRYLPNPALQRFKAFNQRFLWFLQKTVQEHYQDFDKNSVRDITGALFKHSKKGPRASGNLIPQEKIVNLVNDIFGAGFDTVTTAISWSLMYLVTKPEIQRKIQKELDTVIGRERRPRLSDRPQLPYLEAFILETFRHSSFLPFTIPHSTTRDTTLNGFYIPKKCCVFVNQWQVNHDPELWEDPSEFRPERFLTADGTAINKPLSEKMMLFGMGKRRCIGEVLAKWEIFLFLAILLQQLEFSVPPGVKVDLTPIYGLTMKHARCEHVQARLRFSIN", "assay": "Cytochrome P450 Family 1 Subfamily A Member 2 (CYP1A2) small molecule antagonists: luciferase reporter qHTS assay (AID 1671199)", "conditions": "P450-Glo CYP1A2 enzyme, luciferin luminescence, 1 h; series mostly up to 115 µM; activity change, negative = inhibition: at the top concentration", "in_short": "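Read-out is luminescence from luciferin detection reagent (20 min) proportional to CYP1A2 activity; compounds in DMSO preincubated 10 min with enzyme and proluciferin substrate, then NADPH regeneration solution, 1 h, room temperature.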"}
{"smiles": "Cc1cccc(O)c1N", "Potency": "active: 10.1 µM"}
{"smiles": "C1C[C@@H]2[C@H]3CC[C@H](C3)[C@@H]2C1", "Potency": "inconclusive: 63.5 µM [inhibitor, partial curve]"}
{"smiles": "COC(=O)c1ccccc1C(=O)O", "activity change, negative = inhibition": "inactive: -24.1%"}
{"smiles": "O=C(O)c1cccc([N+](=O)[O-])c1", "Potency": "inactive and inconclusive: 63.3 µM [inhibitor, partial curve] and inconclusive: 44.8 µM [inhibitor, partial curve]"}
{"smiles": "C=CC(=O)OCCCCCCCC(C)C", "Potency": "inactive"}
{"smiles": "[O]=[Zr]", "Potency": "active: 35.4 µM"}
{"smiles": "FC(F)(F)c1ccccc1Cl", "activity change, negative = inhibition": "inactive: -26.9%"}
{"smiles": "NC(N)=S", "Potency": "inconclusive: 69.5 µM [inhibitor, partial curve, poor fit] and inactive"}
{"smiles": "CCC1(CO)COCOC1", "Potency": "inconclusive: 31.6 µM [inhibitor, partial curve]"}
{"smiles": "OC/C(Br)=C(\\Br)CO", "Potency": "inconclusive: 44.5 µM [inhibitor, partial curve]"}
{"smiles": "C=CCc1ccccc1OCC(O)CNC(C)C", "note": "(stereo unspecified)", "Potency": "active: 12.3 µM"}
{"smiles": "Cc1ccc(O)c(-n2nc3ccccc3n2)c1", "Potency": "active: 2.23 µM and active: 1.42 µM and active: 2.57 µM"}
{"smiles": "O=C(O)CCCCCCC(=O)O", "Potency": "inconclusive: 63.9 µM [inhibitor, partial curve]"}
{"molecular_target": "Cytochrome P450 3A4 (Homo sapiens) (UniProt P08684)", "sequence (P08684 whole entry, looked up)": "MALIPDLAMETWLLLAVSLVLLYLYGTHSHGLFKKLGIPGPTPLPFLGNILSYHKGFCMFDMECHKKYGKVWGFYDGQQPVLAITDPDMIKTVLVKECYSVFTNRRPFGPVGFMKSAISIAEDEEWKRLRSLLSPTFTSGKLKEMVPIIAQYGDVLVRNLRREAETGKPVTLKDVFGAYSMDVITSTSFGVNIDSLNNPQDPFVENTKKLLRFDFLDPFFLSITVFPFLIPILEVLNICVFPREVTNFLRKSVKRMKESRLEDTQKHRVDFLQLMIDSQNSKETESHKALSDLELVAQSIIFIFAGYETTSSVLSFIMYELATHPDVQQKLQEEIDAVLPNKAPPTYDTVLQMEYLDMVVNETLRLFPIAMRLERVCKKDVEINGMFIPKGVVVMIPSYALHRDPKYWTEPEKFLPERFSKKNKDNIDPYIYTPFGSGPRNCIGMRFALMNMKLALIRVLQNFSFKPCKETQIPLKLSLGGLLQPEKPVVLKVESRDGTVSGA", "assay": "Cytochrome P450 Family 3 Subfamily A Member 4 (CYP3A4) small molecule antagonists: luciferase reporter qHTS assay (AID 1671201)", "conditions": "P450-Glo CYP3A4 enzyme, luciferin luminescence, 1 h; series mostly up to 115 µM; activity change, negative = inhibition: at the top concentration", "in_short": "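Inhibition of CYP3A4 is measured as loss of light: the enzyme converts a proluciferin substrate to luciferin, detected luminescently. Reaction ran 1 h at room temperature with NADPH regeneration after a 10 min compound preincubation.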"}
{"smiles": "C1C[C@@H]2[C@H]3CC[C@H](C3)[C@@H]2C1", "Potency": "inconclusive: 40 µM [inhibitor, partial curve]"}
{"smiles": "O=C(O)CCC(=O)C(=O)O", "activity change, negative = inhibition": "inactive: 5.96%"}
{"smiles": "Cc1ccc(O)c(-n2nc3ccccc3n2)c1", "Potency": "active: 22.3 µM and active: 25.2 µM and inconclusive: 30.9 µM [inhibitor, partial curve]"}
